Laboratory results published in PubChem BioAssay AID1963576 (National Center for Advancing Translational Sciences (NCATS), 2024).
The whole screen tested about 46,000 compounds, of which about 60 (0.1%) were called active. Inconclusive results (about 3%) are left out. The call rests on the fitted dose curve; in most records, active means well fitted inhibition curve with a large enough effect; inconclusive means small, poorly fitted or top-dose-only effect; inactive means no such curve, though single readings can be large or run the other way. Some of the results follow.

Assay: Primary qHTS assay for Inhibitors of ovarian cancer metastasis using an organotypic tumor microenvironment (TME) model. Further: nearly all actives have a fitted effect of over 65% in size.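 On Potency: count of GFP cancer cells still attached after washing and fixation.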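 On activity change, negative = inhibition: plate controls were DMSO wells for no effect and tomatine positive control wells for full effect.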
Conditions: SKOV3ip1-GFP adhesion/invasion on 3D omental model, fluorescence; series mostly up to 45.8 µM; activity change, negative = inhibition: at the top concentration
Outline: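 qHTS, 4-pt dose (0.36-46 umol/L); SKOV3ip1-GFP, 1,200 cells/well, no FBS; primary omental fibroblast/mesothelial co-culture 48 h pre-grown; 2 h RT + 16 h 37 C; PBS wash, 4% PFA; GFP count 488/509 nm.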
Potency means the concentration at half of the fitted maximal effect.

Row | Compound | activity change, negative = inhibition | Potency | outcome
1 | Cc1ccc(OCC(=O)N2CCN(CCc3ccncc3)CC2)cc1 | inactive: -7.16% |  | 
2 | Cc1cccc(Cn2cccc(C(=O)Nc3ccc(F)cc3F)c2=O)c1 | inactive: -7.99% |  | 
3 | COc1ccc(OCC(=O)N2CCN(Cc3cc(=O)n4nc(-c5ccc(OC)cc5)sc4n3)CC2)cc1 | inactive: -2.32% |  | 
4 | Cc1ccccc1-n1c(/C=C/c2ccc(N(C)C)cc2)nc2ccccc2c1=O | inactive: 10.5% |  | 
5 | O=C(c1ccc2c(c1)N(Cc1ccc(F)cc1)C(=O)c1ccccc1S2)N1CCC2(CC1)OCCO2 | inactive: 6.4% |  | 
6 | COc1ccc(OCC(=O)N2CCN(Cc3ccc(SC)cc3)CC2)cc1 | inactive: -11.3% |  | 
7 | COc1ccc2c(c[n+](C)c3c4cc5c(cc4ccc23)OCO5)c1OC |  | active: 23.5 µM | 
8 | CCC1(c2ccc(N)cc2)CCC(=O)NC1=O (stereo not drawn) | inactive: -6.54% |  | 
9 | Cc1ccc(C(=O)Nc2ccccc2)cc1S(=O)(=O)N1CCCC1 | inactive: 8.01% |  | 
10 | Cc1ccc(C(C)C)c(OCC(=O)N2CCN(CCc3ccncc3)CC2)c1 | inactive: -1.68% |  | 
11 | C[C@@H]1[C@H](O)[C@@H](C)C=CC=CCCC=CC=CC=CC=C[C@H](O[C@H]2O[C@@H](C)[C@H](O)[C@@H](N)[C@@H]2O)CC2O[C@](O)(C[C@@H](O)[C@H](O)CC[C@@H](O)C[C@@H](O)C[C@@H](O)CC(=O)O[C@H]1C)C[C@H](O)[C@H]2C(=O)O | inactive: 14.7% |  | 
12 | Cc1ccccc1CN1C(=O)C(C)N=C(c2ccccc2)c2ccccc21 (stereo not drawn) | inactive: -3.54% |  | 
13 | CCOc1ccc(CN(CCc2ccc3c(c2)OCO3)Cc2ccc(OC)c(Br)c2)cc1 | inactive: -5.42% |  | 
14 | CCOc1ccc2nc(NC(=O)c3cccn(Cc4ccccc4Cl)c3=O)sc2c1 |  |  | inactive
15 | CCCN1CCO[C@@H]2c3cc(O)ccc3OC[C@@H]21 | inactive: 2.7% |  | 
16 | C[C@@H]1CC[C@H]2[C@@H](C)C(=O)O[C@@H]3O[C@@]4(C)CC[C@H]1[C@]32OO4 | inactive: -4.42% |  | 
17 | CCc1ccc(OCC(=O)N2CCN(CCc3ccncc3)CC2)cc1 | inactive: -0.114% |  | 
18 | CC(C)(O)C(=O)Nc1ccc([N+](=O)[O-])c(C(F)(F)F)c1 | inactive: 4.83% |  | 
19 | COc1ccc(OC)c(C(c2c(O)c3ccccc3oc2=O)c2c(C)n(C)n(-c3ccccc3)c2=O)c1 (stereo not drawn) | inactive: 3.25% |  | 
20 | CCc1cccc(NC(=O)CN2C(=O)CN=C(c3ccccc3F)c3cc(Cl)ccc32)c1 | inactive: -22.5% |  | 
21 | CSc1ccc(/C=C/c2nc3ccccc3c(=O)n2-c2cccc(Cl)c2C)cc1 | inactive: -6.08% |  | 
22 | Cc1cc(OCC(=O)N2CCN(CCc3ccncc3)CC2)ccc1Cl | inactive: 1.16% |  | 

Row | Compound | activity change, negative = inhibition | Potency | outcome
23 | Cc1c(C(=O)Nc2cccc(C(F)(F)F)c2)cc(-c2ccccc2)n1CCCN1CCOCC1 | inactive: -19.1% |  | 
24 | CCOc1ccc(CN(CCc2ccc3c(c2)OCO3)Cc2cc(OC)ccc2O)cc1 | inactive: -7.4% |  | 
25 | CC(C)c1ccc(OCC(=O)N2CCN(CCc3ccncc3)CC2)cc1 | inactive: 8.56% |  | 
26 | COc1ccc(-n2c(/C=C\c3ccccc3F)nc3ccccc3c2=O)c(OC)c1 | inactive: -7.87% |  | 
27 | N#Cc1cc2c(nc1SCC(=O)Nc1ccc(C(F)(F)F)cc1)C1CCN2CC1 |  |  | inactive
28 | Cc1cccc(-n2c(/C=C/c3c[nH]c4ccccc34)nc3ccccc3c2=O)c1 | inactive: -0.167% |  | 
29 | C[C@]12CC[C@@H]3[C@@H](CCC4=CC(=O)CC[C@@H]43)[C@@H]1CC[C@@H]2OC(=O)CCc1ccccc1 | inactive: 24.8% |  | 
30 | COc1ccc(-c2nc(CN3C(=O)CN=C(c4ccccc4)c4ccccc43)c(C)o2)cc1 | inactive: -20.4% |  | 
31 | c1cc2c(cc1[C@H]1OC[C@H]3[C@H]1CO[C@H]3c1ccc3c(c1)OCO3)OCO2 | inactive: -2.3% |  | 
32 | C[C@]12CC[C@H]3[C@@H](CCC4=CC(=O)CC[C@@]43C)[C@H]1CC[C@H]2OC(=O)CCC1CCCC1 | inactive: -18.7% |  | 
33 | O=C(O)CCCc1ccc(N(CCCl)CCCl)cc1 | inactive: 3.28% |  | 
34 | CC1=C2C[C@@H]3[C@@H](CC=C4C[C@@H](O)CC[C@@]43C)[C@@H]2CC[C@]12O[C@H]1C[C@H](C)CN[C@H]1[C@H]2C | inactive: 19.5% |  | 
35 | Cc1cccc(Cn2cccc(C(=O)Nc3cc(C)on3)c2=O)c1 |  |  | inactive
36 | COc1ccc(C(=O)N2CCCC2=O)cc1 | inactive: 2.05% |  | 
37 | Oc1ccc2c3c1O[C@H]1c4[nH]c5c(c4C[C@@]4(O)[C@@H](C2)N(CC2CC2)CC[C@]314)C[C@@]1(O)[C@H]2Cc3ccc(O)c4c3[C@@]1(CCN2CC1CC1)[C@H]5O4 | inactive: 5.04% |  | 
38 | CCN(CC)C(=O)c1ccc(NC(=O)CCn2nc(-c3ccc(Cl)cc3)c3ccccc3c2=O)cc1 |  |  | inactive
39 | COc1ccc(CN2CCN(C(=O)COc3ccccc3)CC2)c(OC)c1 |  |  | inactive
40 | Cc1cccc(C2CC(=O)Oc3c2c(=O)oc2ccccc32)c1 (stereo not drawn) | inactive: -8.92% |  | 
41 | Cc1c(N)nc([C@H](CC(N)=O)NC[C@@H](N)C(N)=O)nc1C(=O)N[C@H](C(=O)N[C@@H](C)[C@H](O)[C@@H](C)C(=O)N[C@@H](C(=O)NCCc1nc(-c2nc(C(=O)NCCC[S+](C)C)cs2)cs1)[C@@H](C)O)C(O[C@H]1O[C@H](CO)[C@H](O)[C@@H](O)[C@@H]1O[C@H]1O[C@H](CO)[C@@H](O)[C@H](OC(N)=O)[C@H]1O)c1cnc[nH]1 (stereo partly drawn) | inactive: -27.2% |  | 
42 | CC1=C(O)C(=O)C=C2C1=CC=C1[C@@]2(C)CC[C@@]2(C)[C@@H]3C[C@](C)(C(=O)O)CC[C@]3(C)CC[C@]12C |  | active: 4.18 µM | 
43 | CCN(CC)C(=O)c1ccc(NC(=O)CCn2nc(-c3ccc(C)cc3)c3ccccc3c2=O)cc1 | inactive: -6.14% |  | 
44 | Cc1cc(OCC(=O)N2CCN(CCc3ccccn3)CC2)cc(C)c1Cl | inactive: 0.996% |  | 

Row | Compound | activity change, negative = inhibition | Potency | outcome
45 | CCOc1ccc(CN(CCc2ccc3c(c2)OCO3)Cc2cccc(C)c2)cc1 | inactive: -8.79% |  | 
46 | O=C(CN1C(=O)CN=C(c2ccccc2)c2ccccc21)Nc1cccc(C(F)(F)F)c1 | inactive: 4.2% |  | 
47 | CCCC1=Nc2cc(C(=O)NC3CCC(C)CC3)ccc2Sc2ccccc21 (stereo not drawn) | inactive: -5.69% |  | 
48 | COc1cccc2c1[C@]13CCN(CC4CC4)[C@H](C2)[C@]1(OC)CCC(=O)C3 | inactive: 0.373% |  | 
49 | CC(C)(O)C=CC(=O)[C@](C)(O)[C@H]1[C@H](O)C[C@]2(C)[C@@H]3CC=C4[C@@H](C=C(O)C(=O)C4(C)C)[C@]3(C)C(=O)C[C@@]12C |  | active: 1.05 µM | 
50 | Cc1cc(NC(=O)c2cccn(Cc3ccccc3)c2=O)no1 |  |  | inactive
51 | CCOC(=O)c1ccc(NC(=O)c2sc3nc4c(cc3c2N)N2CCC4CC2)cc1 | inactive: -13.9% |  | 
52 | CC[C@@]1(O)C(=O)OCc2c1cc1n(c2=O)Cc2cc3ccccc3nc2-1 | inactive: 22.5% |  | 
53 | CN1CCN(c2ccc([N+](=O)[O-])c3no[n+]([O-])c23)CC1 | inactive: -3.77% |  | 
54 | CCNC(=O)C[C@@H]1N=C(c2ccc(Cl)cc2)c2cc(OC)ccc2-n2c(C)nnc21 |  |  | inactive
55 | COc1cc([C@@H]2c3cc4c(cc3[C@@H](O)C3COC(=O)C32)OCO4)cc(OC)c1O (stereo partly drawn) | inactive: 3.82% |  | 
56 | Cc1cc(C)cc(OCC(=O)Nc2ccc(Cl)cc2C(=O)c2ccccc2)c1 | inactive: 4.53% |  | 
57 | COc1ccc(OCC(=O)N2CCN(Cc3cccc(OC)c3OC)CC2)cc1 |  |  | inactive
58 | COC(=O)c1ccc(NC(=O)c2cccn(Cc3ccccc3C)c2=O)cc1 | inactive: 4.42% |  | 
59 | O=C(Nc1ccc(Br)cc1C(=O)c1ccccc1)c1ccccc1 | inactive: 13% |  | 
60 | CC(=CCCC1=CCC(C2=CC(=O)OC2O)OC1O)CCC1=C(C)CCCC1(C)C (stereo not drawn) | inactive: -3.27% |  | 
61 | C=C1C[C@H]2[C@H]3CCC(=O)[C@@]3(C)CC[C@@H]2[C@@]2(C)C=CC(=O)C=C12 | inactive: 9.92% |  | 
62 | O=C(O)CNC(=O)c1c(O)c2ccccc2n(Cc2ccccc2)c1=O | inactive: -20.3% |  | 
63 | Cc1ccc(OCC(=O)Nc2ccc(Cl)cc2C(=O)c2ccccc2)cc1 | inactive: -4.97% |  | 
64 | Cc1c(C(=O)c2cccc3ccccc23)c2cccc3c2n1[C@H](CN1CCOCC1)CO3 | inactive: -14.9% |  | 
65 | O=S1(=O)N(Cc2ccccc2)CCCN1Cc1ccc(F)cc1Cl | inactive: 2.28% |  | 
66 | CN1CCN(c2oc(-c3ccc(COc4ccccc4)o3)nc2C#N)CC1 | inactive: -21% |  | 

Row | Compound | activity change, negative = inhibition | Potency | outcome
67 | C[C@]12CCC(=O)C=C1CC[C@@H]1[C@H]3CC[C@](C)(O)[C@@]3(C)CC[C@@H]12 | inactive: 0.789% [at 92.2 µM] |  | 
68 | COc1cc(C(c2c(O)c3ccccc3oc2=O)c2c(C)n(C)n(-c3ccccc3)c2=O)ccc1O (stereo not drawn) | inactive: 21.5% |  | 
69 | CCC(=O)OC1CCC2C3CCC4=CC(=O)CC[C@@]4(C)C3CC[C@]12C (stereo partly drawn) | inactive: 8.12% |  | 
70 | N[C@@H](Cc1ccc(N(CCCl)CCCl)cc1)C(=O)O | inactive: 2.64% |  | 
71 | Cc1nnc(NC(=O)c2cccn(Cc3cccc(Cl)c3)c2=O)s1 | inactive: 5.62% |  | 
72 | O=c1c2ccccc2nc(/C=C/c2ccccc2)n1-c1ccccc1F | inactive: 9.65% |  | 
73 | CCOC(=O)c1c(C(C#N)=CN)c2ccc(Cl)c(Cl)c2n1C | inactive: -22% |  | 
74 | Cc1c(Cl)cccc1NC(=O)CN1C(=O)C(C)N=C(c2ccccc2)c2ccccc21 (stereo not drawn) | inactive: -0.276% |  | 
75 | COc1cc(C(c2c(O)c3ccccc3oc2=O)c2c(C)n(C)n(-c3ccccc3)c2=O)ccc1OCC(=O)O (stereo not drawn) | inactive: 0.325% |  | 
76 | O=C(Nc1ccc(Cl)cc1C(=O)c1ccccc1)c1ccccc1Br | inactive: -2.92% |  | 
77 | Nc1c(C(=O)Nc2ccc(Br)cc2F)sc2nc3c(cc12)N1CCC3CC1 |  |  | inactive
78 | Cc1cccc(-n2c(/C=C/c3c(C)[nH]c4ccccc34)nc3ccccc3c2=O)c1 | inactive: 2.93% |  | 
79 | COc1ccccc1NC(=O)N(Cc1ccc2c(c1)OCO2)C1CCN(Cc2ccccc2)CC1 | inactive: -11% |  | 
80 | CN(C)CCN(C)CCc1ccc(Cl)c(Cl)c1 | inactive: 1.64% |  | 
81 | Nc1c(C(=O)Nc2ccc(Cl)cc2)sc2nc3c(cc12)N1CCC3CC1 | inactive: -14.9% |  | 
82 | Cn1cc(/C=C/c2nc3ccccc3c(=O)n2-c2ccccc2)c2ccccc21 | inactive: -2.35% |  | 
83 | O=C(Nc1ccc2c(c1)OCO2)c1cccn(Cc2cccc(F)c2)c1=O | inactive: -8.43% |  | 
84 | COc1ccc(OC)c(NC(=O)Cn2cc(C(=O)c3ccccc3)c3ccccc32)c1 | inactive: -1.53% |  | 
85 | O=C(Nc1ccc(Cl)cc1C(=O)c1ccccc1)c1cc(Cl)cc(Cl)c1 | inactive: -6.63% |  | 
86 | NC1CC1c1ccccc1 (stereo not drawn) | inactive: -1.4% |  | 
87 | CCOc1ccc2nc(NC(=O)c3cccn(Cc4ccccc4)c3=O)sc2c1 | inactive: 4.78% |  | 
88 | CSc1ccc(CN2CCN(C(=O)COc3ccc(C)cc3)CC2)cc1 | inactive: -8.54% |  | 
